Most values come without repeats; read them as rough.
Legend:
CHO-K1 [1] = test: relative survival (nuclei to bead ratio vs DMSO control) (% of vehicle control); higher = more surviving cells
Procedure: (§1)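 Flow-cytometric in vitro micronucleus assay (Litron MicroFlow) in CHO-K1 cells in 96-well plates, 19 concentrations (4.5-200 µM, n=1 per concentration). Without S9, cells were exposed for 24 h and sampled at 48 h. With Aroclor 1254-induced rat liver S9, cells were exposed for 3-4 h and sampled at 27-28 h. Read-outs are %MN and %hypodiploid nuclei relative to nucleated events, and relative survival as the nuclei-to-bead ratio versus the 1% DMSO vehicle control (x100).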

CHO-K1 [2] = test: hypodiploid nuclei frequency (% of nucleated events); higher = more hypodiploid events (aneugenic)
Procedure: as §1

CHO-K1 [3] = test: micronucleus frequency (% of nucleated events); higher = more micronuclei (genotoxic)
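Throughout, for hypodiploid nuclei frequency (% of nucleated events): hypodiploid nuclei gated on a flow cytometer with 488 nm excitation after SYTOX Green staining, cultures at 37 °C, positive controls vinblastine without S9 and cyclophosphamide with S9.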
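Throughout, for micronucleus frequency (% of nucleated events): cells lysed with nuclei stained by SYTOX Green, then micronucleus-gated events counted against nucleated events by flow cytometry with 488 nm excitation.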
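Throughout, for relative survival (nuclei to bead ratio vs DMSO control): Lysed-cell nuclei stained with SYTOX Green and counted against counting beads by flow cytometry at 488 nm excitation, with vinblastine (no S9) and cyclophosphamide (plus S9) as positive controls.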

CCOC(=O)c1ccccc1C(=O)OCC [Diethyl phthalate]
Details	hypodiploid nuclei frequency, CHO-K1 [2] [%]	micronucleus frequency, CHO-K1 [3] [%]	relative survival, CHO-K1 [1]
concentration: 4.5 (µM), S9 metabolic activation: with S9, exposure time: 3-4 hours	0.38	2.46	89.8
concentration: 4.5 (µM), S9 metabolic activation: without S9, exposure time: 24 hours	0.88	1.76	110
concentration: 5.63 (µM), S9 metabolic activation: with S9, exposure time: 3-4 hours	0.42	1.8	86
concentration: 5.63 (µM), S9 metabolic activation: without S9, exposure time: 24 hours	0.98	1.84	115
concentration: 7.04 (µM), S9 metabolic activation: with S9, exposure time: 3-4 hours	0.26	2.66	89.6
concentration: 7.04 (µM), S9 metabolic activation: without S9, exposure time: 24 hours	0.78	1.58	120
concentration: 8.8 (µM), S9 metabolic activation: with S9, exposure time: 3-4 hours	0.34	1.6	66.5
concentration: 8.8 (µM), S9 metabolic activation: without S9, exposure time: 24 hours	0.88	1.94	105
concentration: 11 (µM), S9 metabolic activation: with S9, exposure time: 3-4 hours	0.26	1.84	78.6
concentration: 11 (µM), S9 metabolic activation: without S9, exposure time: 24 hours	0.98	1.66	112
concentration: 13.7 (µM), S9 metabolic activation: with S9, exposure time: 3-4 hours	0.34	2.08	81.1
concentration: 13.7 (µM), S9 metabolic activation: without S9, exposure time: 24 hours	0.76	1.7	107
concentration: 17.2 (µM), S9 metabolic activation: with S9, exposure time: 3-4 hours	0.12	1.24	94.5
concentration: 17.2 (µM), S9 metabolic activation: without S9, exposure time: 24 hours	0.86	1.46	118
concentration: 21.5 (µM), S9 metabolic activation: with S9, exposure time: 3-4 hours	0.32	2.16	83.8
concentration: 21.5 (µM), S9 metabolic activation: without S9, exposure time: 24 hours	0.88	1.76	105
concentration: 26.8 (µM), S9 metabolic activation: with S9, exposure time: 3-4 hours	0.3	2.16	95.1
concentration: 26.8 (µM), S9 metabolic activation: without S9, exposure time: 24 hours	0.76	1.66	101
concentration: 33.6 (µM), S9 metabolic activation: with S9, exposure time: 3-4 hours	0.32	2.66	101
concentration: 33.6 (µM), S9 metabolic activation: without S9, exposure time: 24 hours	0.86	1.82	104
concentration: 41.9 (µM), S9 metabolic activation: with S9, exposure time: 3-4 hours	0.24	1.92	88.2
concentration: 41.9 (µM), S9 metabolic activation: without S9, exposure time: 24 hours	1.06	1.62	89.8
concentration: 52.4 (µM), S9 metabolic activation: with S9, exposure time: 3-4 hours	0.24	2.68	81.3
concentration: 52.4 (µM), S9 metabolic activation: without S9, exposure time: 24 hours	0.96	2.32	93.8
concentration: 65.5 (µM), S9 metabolic activation: with S9, exposure time: 3-4 hours	0.38	1.76	79.2
concentration: 65.5 (µM), S9 metabolic activation: without S9, exposure time: 24 hours	0.96	1.9	96.9
concentration: 81.9 (µM), S9 metabolic activation: with S9, exposure time: 3-4 hours	0.2	2.22	92.2
concentration: 81.9 (µM), S9 metabolic activation: without S9, exposure time: 24 hours	1.28	2.18	109
concentration: 102 (µM), S9 metabolic activation: with S9, exposure time: 3-4 hours	0.26	2.26	79.2
concentration: 102 (µM), S9 metabolic activation: without S9, exposure time: 24 hours	1.44	2.34	94.3
concentration: 128 (µM), S9 metabolic activation: with S9, exposure time: 3-4 hours	0.16	2.7	82.6
concentration: 128 (µM), S9 metabolic activation: without S9, exposure time: 24 hours	1.52	1.96	90.5
concentration: 160 (µM), S9 metabolic activation: with S9, exposure time: 3-4 hours	0.42	1.86	83.7
concentration: 160 (µM), S9 metabolic activation: without S9, exposure time: 24 hours	2.22	2.84	127
concentration: 200 (µM), S9 metabolic activation: with S9, exposure time: 3-4 hours	0.18	2.36	78.6
concentration: 200 (µM), S9 metabolic activation: without S9, exposure time: 24 hours	2.22	2.78	89.4
